Results: the supplement of paper PMC10126150
Values marked as one replicate rest on one cluster of the flow cell; about a third of the high ones do not repeat.

Tested on: ATP
Experiment: switch fluorescence ratio, 500 uM ATP over buffer (Cy3 cluster intensity, sum of 5 cycles each) (fold (ratio)); higher = stronger signal-on switching upon ATP binding; sequences stand for … in TCGTCGGCAGCGTCAGATGTGTATAAGAGACAGTTTTTTTTTTTTTTTTTTTTTTTTT…TC
Conditions: aptamer strand: ATP DNA aptamer (quencher-CACCTGGGGGAGTATTGCGGAGGAAGG + anchor), 100 nM annealed; ATP concentration: 500 uM; one replicate
Summary of the method: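 Clusters carrying Cy3-labelled switching strands on a modified Illumina MiSeq flow-cell were annealed to 100 nM quencher-labelled ATP aptamer and imaged in selection buffer. They were imaged again after 15 min with 500 uM ATP at 22 °C, over five buffer/ATP cycles with NaOH stripping and re-annealing in between. For each cluster, the fluorescence ratio is the summed Cy3 intensity of the target cycles divided by that of the buffer cycles, averaged per switch-domain sequence. Clusters outside 100-1000 RFU were left out.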
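Further: ATP exposure 15 min at 22 °C before imaging.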

In the case of CGAAAATCT, the switch fluorescence ratio is reported as 0.993.

CGGCTGAGT was tested, and the switch fluorescence ratio was 1.02.

GGAGTAGGA was tested, and the switch fluorescence ratio was 0.992.

Work on ACCGCGTTAT yielded a switch fluorescence ratio of 1.21.

Sequence TATTTGTCTA has a switch fluorescence ratio of 1.

GAGCTTCTT gave a switch fluorescence ratio of 1.06.

Sequence TGTGTGCAGG has a switch fluorescence ratio of 0.915.

In the case of TTTGCTACCT, the switch fluorescence ratio is reported as 1.17.

TCCGGTTAAA was tested, and the switch fluorescence ratio was 1.05.

GAAGGCCTTC showed a switch fluorescence ratio of 0.999.

ATTAGGCGGA was tested, and the switch fluorescence ratio was 0.997.

ACGTGGAGTC showed a switch fluorescence ratio of 1.

With GAGTGGCCAG the switch fluorescence ratio was 0.982.

With TGGCGTTCCC the switch fluorescence ratio was 0.957.

In the case of GGTCTCTTTT, the switch fluorescence ratio is reported as 1.01.

GAGTTTAAAA showed a switch fluorescence ratio of 0.999.

Work on TTTAATTCTA yielded a switch fluorescence ratio of 0.957.

TTTGGCTCCC showed a switch fluorescence ratio of 1.05.

ATACCGGGGT showed a switch fluorescence ratio of 0.98.

AGGCGGGATG showed a switch fluorescence ratio of 0.96.

Work on TGATAGAGAG yielded a switch fluorescence ratio of 1.04.

ACGTATCTAT gave a switch fluorescence ratio of 1.15.

In the case of ACTGGGAATT, the switch fluorescence ratio is reported as 1.01.

In the case of CTTTTAGTAA, the switch fluorescence ratio is reported as 0.983.

Sequence AGTTGCGATA has a switch fluorescence ratio of 0.986.

Sequence TGCTTATTAA has a switch fluorescence ratio of 0.958.

For ATCTGCAGGG, the switch fluorescence ratio was 0.974.

Sequence TCTTAAATCA has a switch fluorescence ratio of 1.02.

Sequence CCACGGCTTT has a switch fluorescence ratio of 1.12.

AATAGCGCTG gave a switch fluorescence ratio of 1.02.

GCCCTTTTAG gave a switch fluorescence ratio of 0.984.

With TATCTCAGTT the switch fluorescence ratio was 0.977.

In the case of GGAAAGGTTG, the switch fluorescence ratio is reported as 0.977.

TTCAGTCACG was tested, and the switch fluorescence ratio was 1.01.

TCGAAAACAT gave a switch fluorescence ratio of 1.09.

For GAATACAGGG, the switch fluorescence ratio was 1.05.

In the case of ATACTTCAAG, the switch fluorescence ratio is reported as 0.979.

CGAGAATGTG was tested, and the switch fluorescence ratio was 1.

In the case of TCCTGTCTTG, the switch fluorescence ratio is reported as 0.981.

With CTTATTTGAA the switch fluorescence ratio was 1.11.

TGAATGACGC gave a switch fluorescence ratio of 1.12.

In the case of AGCATTCTGG, the switch fluorescence ratio is reported as 0.958.

TATGGCCAGA showed a switch fluorescence ratio of 0.965.

TTCCCTTGAA gave a switch fluorescence ratio of 1.02.

GCGCCCATGG was tested, and the switch fluorescence ratio was 1.03.

Sequence TTCGTACGGA has a switch fluorescence ratio of 0.969.

With TAGTGGGCTA the switch fluorescence ratio was 1.

For GGGACGTAAT, the switch fluorescence ratio was 1.

In the case of GAAGTGCTTA, the switch fluorescence ratio is reported as 1.05.

TTCCCTGGCG gave a switch fluorescence ratio of 1.

In the case of TCTCCCCCAC, the switch fluorescence ratio is reported as 2.41.

For ATAGTTACAA, the switch fluorescence ratio was 0.963.

For GGATGCGGT, the switch fluorescence ratio was 1.02.

With CCTTGTGATA the switch fluorescence ratio was 1.17.

CTGGGTAGC gave a switch fluorescence ratio of 0.997.

TGCGATATTC gave a switch fluorescence ratio of 1.45.

Work on TTGTGTGCGT yielded a switch fluorescence ratio of 0.971.

Sequence TCCGGGCGGT has a switch fluorescence ratio of 1.08.

Work on GCTTAGAGGG yielded a switch fluorescence ratio of 1.

With CTGTCAAAGT the switch fluorescence ratio was 0.988.

For AGAGACTATA, the switch fluorescence ratio was 0.989.

TAGCGGCAGG was tested, and the switch fluorescence ratio was 0.995.

In the case of CAGGTTAGCG, the switch fluorescence ratio is reported as 1.01.

TCATGCTGGA showed a switch fluorescence ratio of 0.985.

Sequence GAGCGAAGCT has a switch fluorescence ratio of 0.986.

In the case of AAATGCGGTT, the switch fluorescence ratio is reported as 1.03.

CGAAACTACA showed a switch fluorescence ratio of 1.06.

For AGAGAATCTG, the switch fluorescence ratio was 1.06.

For AATTTACGTC, the switch fluorescence ratio was 0.932.

For TACTTTGCAT, the switch fluorescence ratio was 1.26.

For CCAGAGGGGA, the switch fluorescence ratio was 1.01.

For AAGCTTGGAT, the switch fluorescence ratio was 0.973.

Work on AGCTTAAAGG yielded a switch fluorescence ratio of 0.975.

TTGTGTTGAG gave a switch fluorescence ratio of 0.996.

TGGAAGCCG showed a switch fluorescence ratio of 0.962.

CCGGATGGTA showed a switch fluorescence ratio of 1.03.

For GGGCCGCAGG, the switch fluorescence ratio was 0.984.

Sequence ACGAAGCCAT has a switch fluorescence ratio of 1.78.

In the case of GTACGGACCT, the switch fluorescence ratio is reported as 1.46.

GTATGTGCAA was tested, and the switch fluorescence ratio was 1.08.

In the case of CGGCCATCTG, the switch fluorescence ratio is reported as 0.989.

Work on AGGCCAACTG yielded a switch fluorescence ratio of 1.15.

For TGACATACAC, the switch fluorescence ratio was 1.33.

TACACAGTAT gave a switch fluorescence ratio of 1.06.

For TACAGTGTGC, the switch fluorescence ratio was 1.04.

AGTGGTATCG gave a switch fluorescence ratio of 0.966.

With AAGGGTAAGG the switch fluorescence ratio was 1.01.

Work on GTGTGGGATG yielded a switch fluorescence ratio of 1.02.

GGGTCAGCCC showed a switch fluorescence ratio of 1.02.

Work on CTGAGGATTT yielded a switch fluorescence ratio of 1.01.

GGATATTTCG was tested, and the switch fluorescence ratio was 1.01.

For CCGGCCGAAA, the switch fluorescence ratio was 1.6.

In the case of TAGCCCTCCA, the switch fluorescence ratio is reported as 1.06.

With AGACTCACGT the switch fluorescence ratio was 1.41.

GGAGCTGGTT was tested, and the switch fluorescence ratio was 1.02.

TGGTGGTGAC showed a switch fluorescence ratio of 0.963.

Sequence GCAGGACCGA has a switch fluorescence ratio of 0.986.

ATGGCGGGTG was tested, and the switch fluorescence ratio was 0.987.

Work on CTACTATCGG yielded a switch fluorescence ratio of 1.04.

Work on AGTATAGCAG yielded a switch fluorescence ratio of 1.03.

In the case of TATGAAACGG, the switch fluorescence ratio is reported as 1.01.

TCGCCGAGA was tested, and the switch fluorescence ratio was 1.04.

In the case of CGGTCGC, the switch fluorescence ratio is reported as 0.968.

For GCTTGTATGT, the switch fluorescence ratio was 1.02.

Work on TCGAAGGTCG yielded a switch fluorescence ratio of 0.953.

For GAGTTATTGA, the switch fluorescence ratio was 1.01.

AGCATTAACC gave a switch fluorescence ratio of 1.13.

For CTGAATAGAT, the switch fluorescence ratio was 1.05.

With CTAGGGGTGT the switch fluorescence ratio was 1.09.

With GGGTCGATGG the switch fluorescence ratio was 0.957.

Sequence CAACCGGTGC has a switch fluorescence ratio of 1.44.

CTGCTATCTT showed a switch fluorescence ratio of 1.08.

Sequence AGCGTCTCCC has a switch fluorescence ratio of 2.06.

With TTAACCTTG the switch fluorescence ratio was 1.06.

CAGATCTAAC gave a switch fluorescence ratio of 0.994.

TGTATGGCGA gave a switch fluorescence ratio of 0.973.

TACATATGAA showed a switch fluorescence ratio of 1.02.

Sequence TTTGATCTTA has a switch fluorescence ratio of 1.

With GGTGTTAACT the switch fluorescence ratio was 1.03.

GTAATCAGCG showed a switch fluorescence ratio of 0.967.

For AGGGTGAAGG, the switch fluorescence ratio was 1.

With AAGCTTTGTA the switch fluorescence ratio was 1.01.

TTAATTGGAA was tested, and the switch fluorescence ratio was 0.957.

Work on CGTAGATACT yielded a switch fluorescence ratio of 1.16.

TGTCCTTGGC was tested, and the switch fluorescence ratio was 0.995.

Sequence TATCGCACGG has a switch fluorescence ratio of 1.29.

With AATTGTCGCC the switch fluorescence ratio was 0.981.

Sequence CGGCAAGGAC has a switch fluorescence ratio of 2.7.

TTTATGAC was tested, and the switch fluorescence ratio was 1.01.

Sequence TTAGACACGT has a switch fluorescence ratio of 1.03.

TAGTGATAGT showed a switch fluorescence ratio of 1.03.

CATTCTGATT gave a switch fluorescence ratio of 1.03.

Sequence CCAGACTCTG has a switch fluorescence ratio of 1.04.

Work on GGTGCAAGAA yielded a switch fluorescence ratio of 1.19.

Sequence TTTGGTAACA has a switch fluorescence ratio of 1.03.

For TCTGCACTGA, the switch fluorescence ratio was 1.03.

Work on AGCTAGTGTT yielded a switch fluorescence ratio of 0.995.

Work on ACCTAACGTC yielded a switch fluorescence ratio of 1.34.

Work on TCCCCCTTTT yielded a switch fluorescence ratio of 1.04.

Sequence TGAAATCCCG has a switch fluorescence ratio of 0.983.

In the case of CCAGTAACCC, the switch fluorescence ratio is reported as 1.07.

With CTGATAAAAC the switch fluorescence ratio was 1.04.

Sequence AACATGACTG has a switch fluorescence ratio of 1.03.

AGACGCCTTA gave a switch fluorescence ratio of 1.

Work on TGTGAGATG yielded a switch fluorescence ratio of 1.05.

Work on CTCCAGGTGG yielded a switch fluorescence ratio of 1.58.

With TAGGACGTCG the switch fluorescence ratio was 1.02.

With TGGGTCTTTA the switch fluorescence ratio was 1.02.

CGGATTTTCC gave a switch fluorescence ratio of 1.15.

TAGTTCGGCC was tested, and the switch fluorescence ratio was 0.967.

With TCGGGCTCGT the switch fluorescence ratio was 0.987.

Sequence CACGTTCTA has a switch fluorescence ratio of 1.02.

Work on AGAACCGTAG yielded a switch fluorescence ratio of 1.07.

AACCAGAGCG showed a switch fluorescence ratio of 0.998.

CCGGATGTAA showed a switch fluorescence ratio of 1.55.

In the case of ACGTTGGACT, the switch fluorescence ratio is reported as 1.07.

Work on GGTCCTCCGA yielded a switch fluorescence ratio of 1.34.

For GGGTATGCTT, the switch fluorescence ratio was 0.958.

In the case of CGCCTTCGAC, the switch fluorescence ratio is reported as 1.3.

CTGAGCACA showed a switch fluorescence ratio of 2.21.

Work on TTTTACATTA yielded a switch fluorescence ratio of 1.01.

With CCTATAAGCG the switch fluorescence ratio was 1.12.

In the case of GCCCGACTGC, the switch fluorescence ratio is reported as 1.04.

AAGTGTACCG was tested, and the switch fluorescence ratio was 1.06.

For CGCACTCCGT, the switch fluorescence ratio was 1.59.

Sequence CCATTGCATG has a switch fluorescence ratio of 1.08.

For TGCATCTTAG, the switch fluorescence ratio was 1.01.

Work on TGTCAGTCGT yielded a switch fluorescence ratio of 1.01.

For CGGGCGGACG, the switch fluorescence ratio was 0.855.

For ATGGAGACAA, the switch fluorescence ratio was 1.08.

ATACGGCTAG showed a switch fluorescence ratio of 1.06.

With GGCTAACCTG the switch fluorescence ratio was 1.03.

CGACGCGTCG showed a switch fluorescence ratio of 1.

Sequence CAAAATGGCC has a switch fluorescence ratio of 1.06.

GTGATAAGGC showed a switch fluorescence ratio of 1.06.

In the case of TATTCCGATG, the switch fluorescence ratio is reported as 1.34.

For CGGGATCAGC, the switch fluorescence ratio was 0.988.

For GAGGAGACGC, the switch fluorescence ratio was 1.07.

Work on TCTCGTCGCC yielded a switch fluorescence ratio of 1.03.

In the case of CTAAAACAGT, the switch fluorescence ratio is reported as 0.985.

For ACTGTTCAAC, the switch fluorescence ratio was 1.02.

With AAGTAGCCTC the switch fluorescence ratio was 1.04.

With ACTTACTAAT the switch fluorescence ratio was 1.12.

With CGGAGCGTTT the switch fluorescence ratio was 1.2.

TAAGCTTTGG gave a switch fluorescence ratio of 0.943.

TGTACCCAAC gave a switch fluorescence ratio of 1.47.

TTGTTTAGAG showed a switch fluorescence ratio of 1.04.

Work on TAGTTCCGGC yielded a switch fluorescence ratio of 1.01.

With CCCGAAAGAG the switch fluorescence ratio was 1.79.

Sequence AGGCGATGAG has a switch fluorescence ratio of 1.01.

GGGGAAGACC gave a switch fluorescence ratio of 0.951.

Work on CGAACGGCTT yielded a switch fluorescence ratio of 1.

Work on TTGTCACGAT yielded a switch fluorescence ratio of 1.04.

CTCGGCAAAT gave a switch fluorescence ratio of 5.57.

TGCAGTTCTG gave a switch fluorescence ratio of 1.04.

Sequence AAGTATCGGT has a switch fluorescence ratio of 1.03.

In the case of GTTCCCATTA, the switch fluorescence ratio is reported as 0.995.

AGTTTCGCAT was tested, and the switch fluorescence ratio was 1.1.

For GGTTCCTAGT, the switch fluorescence ratio was 1.02.

GCTGCATGG gave a switch fluorescence ratio of 1.02.
